# According to publication PMC5700166:
# The entries are a selection whose mix differs from that of the whole data set. The list includes weakly bound sequences.
# Target: T1, GST-Ap-NF-kB RHD (UniProt A0A913YAJ5)
# T1 sequence: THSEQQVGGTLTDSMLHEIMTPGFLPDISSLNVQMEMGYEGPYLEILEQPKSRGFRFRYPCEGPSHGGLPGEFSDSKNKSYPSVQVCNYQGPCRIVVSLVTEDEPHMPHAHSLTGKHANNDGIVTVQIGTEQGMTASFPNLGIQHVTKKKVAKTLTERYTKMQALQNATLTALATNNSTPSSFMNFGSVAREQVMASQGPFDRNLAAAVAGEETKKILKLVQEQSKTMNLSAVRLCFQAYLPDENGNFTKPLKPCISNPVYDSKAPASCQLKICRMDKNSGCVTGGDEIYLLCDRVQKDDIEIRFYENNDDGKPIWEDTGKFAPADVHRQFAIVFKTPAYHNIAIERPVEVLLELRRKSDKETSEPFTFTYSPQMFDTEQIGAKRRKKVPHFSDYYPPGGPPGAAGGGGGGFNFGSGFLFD
# Test: protein-binding microarray (PBM)
# Conditions: PBM: ~300 nM protein, 6 mM HEPES pH 7.8, 80 mM KCl, 0.5 mM EDTA, 0.5 mM EGTA, 6% glycerol, 35 ng/ul poly-dIdC, 1% milk, 1 h, room temperature; Ap Aiptasia and Nv Nematostella (sea anemones) / Co Capsaspora / Aq Amphimedon (sponge) / Dm Drosophila / Hu human; RHD is the Rel homology domain; high values mean tight binding; most listed sequences are background and not binding sites; double strand, one strand shown
row,Sequence,binding signal
1,CCGATTAACATCAACAAATTCCCTGATGTTAATCGGGTCTTGATTCGCTTGACGCTGCTG,3.83 z-score
2,CCGATTAACATCAAAAATACCCATGATGTTAATCGGGTCTTGATTCGCTTGACGCTGCTG,4.63 z-score
3,CCGATTAACATCAGATTCCCCCATGATGTTAATCGGGTCTTGATTCGCTTGACGCTGCTG,8.01 z-score
4,CCGATTAACATCAAATAATTCCCTGATGTTAATCGGGTCTTGATTCGCTTGACGCTGCTG,4.23 z-score
5,CCGATTAACATCAAATTCCCAGATGATGTTAATCGGGTCTTGATTCGCTTGACGCTGCTG,2.43 z-score
6,CCGATTAACATCAGGGGGGGAACTGATGTTAATCGGGTCTTGATTCGCTTGACGCTGCTG,6.55 z-score
7,CCGATTAACATCAGGAATACCCATGATGTTAATCGGGTCTTGATTCGCTTGACGCTGCTG,4.37 z-score
8,CCGATTAACATCAAATAGGGAATTGATGTTAATCGGGTCTTGATTCGCTTGACGCTGCTG,2.29 z-score
9,CCGATTAACATCACTGGGAATTCTGATGTTAATCGGGTCTTGATTCGCTTGACGCTGCTG,3.23 z-score
10,CCGATTAACATCAAATTCCCACTTGATGTTAATCGGGTCTTGATTCGCTTGACGCTGCTG,2.15 z-score
11,CCGATTAACATCAGGTAATTTACTGATGTTAATCGGGTCTTGATTCGCTTGACGCTGCTG,0.504 z-score
12,CCGATTAACATCAATTCCCCCCCTGATGTTAATCGGGTCTTGATTCGCTTGACGCTGCTG,8.18 z-score
13,CCGATTAACATCACAAACTCCCCTGATGTTAATCGGGTCTTGATTCGCTTGACGCTGCTG,7.26 z-score
14,CCGATTAACATCAGATTTTTCCCTGATGTTAATCGGGTCTTGATTCGCTTGACGCTGCTG,3.33 z-score
15,CCGATTAACATCAGGGGAACTCATGATGTTAATCGGGTCTTGATTCGCTTGACGCTGCTG,6.56 z-score
16,CCGATTAACATCAGGGAATCCTATGATGTTAATCGGGTCTTGATTCGCTTGACGCTGCTG,3.36 z-score
17,CCGATTAACATCAGGGAAAGCACTGATGTTAATCGGGTCTTGATTCGCTTGACGCTGCTG,3.61 z-score
18,CCGATTAACATCAAGGGGGGAGGTGATGTTAATCGGGTCTTGATTCGCTTGACGCTGCTG,4.12 z-score
19,CCGATTAACATCAGAATTCCCGATGATGTTAATCGGGTCTTGATTCGCTTGACGCTGCTG,3.78 z-score
20,CCGATTAACATCAATTTTTCCCATGATGTTAATCGGGTCTTGATTCGCTTGACGCTGCTG,2.62 z-score
21,CCGATTAACATCAAGGGGGAAACTGATGTTAATCGGGTCTTGATTCGCTTGACGCTGCTG,7.59 z-score
22,CCGATTAACATCAGGGGATTCTATGATGTTAATCGGGTCTTGATTCGCTTGACGCTGCTG,8.9 z-score
23,CCGATTAACATCAGGGGAACAAATGATGTTAATCGGGTCTTGATTCGCTTGACGCTGCTG,3.88 z-score
24,CCGATTAACATCAGGGGGGTACCTGATGTTAATCGGGTCTTGATTCGCTTGACGCTGCTG,5.8 z-score
25,CCGATTAACATCAGATGTCCCCCTGATGTTAATCGGGTCTTGATTCGCTTGACGCTGCTG,6.05 z-score
26,CCGATTAACATCACATATTTCCCTGATGTTAATCGGGTCTTGATTCGCTTGACGCTGCTG,3.32 z-score
